Among all 310,000 compounds or so, about 14,000 (4.5%) showed an effect of 50% or more. The effect is printed as a negative number. This is one part of the list.
target: human ether-à-go-go-related gene (hERG) potassium channel (human, UniProt Q12809); assay: primary screen, population patch clamp on CHO cells stably expressing hERG
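Note: peak tail current of the secondary pulse compared with the same well before compound.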

human ether-à-go-go-related gene (hERG) potassium channel, sequence (Q12809 whole entry, looked up): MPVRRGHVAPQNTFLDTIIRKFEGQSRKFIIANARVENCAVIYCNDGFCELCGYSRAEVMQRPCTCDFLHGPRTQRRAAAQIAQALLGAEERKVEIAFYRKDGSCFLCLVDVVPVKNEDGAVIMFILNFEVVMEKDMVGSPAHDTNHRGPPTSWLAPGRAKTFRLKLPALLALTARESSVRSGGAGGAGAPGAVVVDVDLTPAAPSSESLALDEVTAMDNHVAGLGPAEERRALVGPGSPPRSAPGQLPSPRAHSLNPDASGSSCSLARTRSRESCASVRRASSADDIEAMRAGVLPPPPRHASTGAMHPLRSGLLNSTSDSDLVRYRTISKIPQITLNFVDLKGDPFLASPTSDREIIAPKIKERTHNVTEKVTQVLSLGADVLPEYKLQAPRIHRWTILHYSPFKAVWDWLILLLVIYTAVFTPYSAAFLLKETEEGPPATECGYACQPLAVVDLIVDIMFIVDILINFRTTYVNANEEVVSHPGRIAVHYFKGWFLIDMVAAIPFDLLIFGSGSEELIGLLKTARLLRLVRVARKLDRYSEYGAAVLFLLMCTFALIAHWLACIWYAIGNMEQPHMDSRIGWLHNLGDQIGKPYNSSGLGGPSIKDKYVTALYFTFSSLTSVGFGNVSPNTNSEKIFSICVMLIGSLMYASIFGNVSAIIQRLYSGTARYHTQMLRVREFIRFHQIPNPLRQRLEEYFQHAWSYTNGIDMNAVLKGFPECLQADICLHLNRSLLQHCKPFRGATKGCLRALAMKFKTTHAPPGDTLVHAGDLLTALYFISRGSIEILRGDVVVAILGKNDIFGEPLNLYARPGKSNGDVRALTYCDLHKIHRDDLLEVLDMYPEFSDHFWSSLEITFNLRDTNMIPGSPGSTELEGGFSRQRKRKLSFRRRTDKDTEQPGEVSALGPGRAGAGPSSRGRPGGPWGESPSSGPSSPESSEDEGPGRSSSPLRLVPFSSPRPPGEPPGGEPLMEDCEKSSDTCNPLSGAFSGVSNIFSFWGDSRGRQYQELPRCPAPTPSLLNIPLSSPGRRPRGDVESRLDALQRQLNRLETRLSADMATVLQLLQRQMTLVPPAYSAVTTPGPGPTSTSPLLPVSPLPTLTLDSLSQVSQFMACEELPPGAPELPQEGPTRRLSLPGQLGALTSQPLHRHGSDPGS

| Structure (SMILES) | hERG current change (%, negative = inhibition) at 10uM [%] |
| --- | --- |
| COc1ccccc1CNC(=O)COC(=O)c1ccc(C)c(S(=O)(=O)N2CCCCC2)c1 | -42.7 |
| Cc1ccc2nc(N3CCOCC3)c(C=O)cc2c1 | 3.06 |
| CCP(=O)(c1cccc([N+](=O)[O-])c1)c1cccc([N+](=O)[O-])c1 | -17.2 |
| COc1ccc(C(C)=O)c2c1OCCO2 | -3.35 |
| COc1ccc(CCNC(=O)c2c(C)nc3ccccn23)cc1 | -4.75 |
| CC(=O)Nc1ccc(N2CCN(C(C)=O)CC2)cc1 | 17.4 |
| CC[C@H](C)[C@@H](NC(=O)O[C@@H]1C(=O)c2cc(OC)ccc2O[C@H]1c1ccc(OC)c(Br)c1)C(=O)OC | -1.62 |
| Cc1cccc(-n2c(N)c(C(=O)NCCN3CCOCC3)c3nc4ccccc4nc32)c1 | -57.1 |
| CCOC(=O)C1=C(C)N=c2s/c(=C/c3cccc([N+](=O)[O-])c3O)c(=O)n2C1c1ccccc1 (stereo not drawn) | -20.4 |
| O=C(Nn1c(C2CCCCC2)nc2ccccc2c1=O)c1ccc([N+](=O)[O-])cc1 | -4.12 |
| CC(C)C1Oc2ccccc2N(CC(=O)N(Cc2ccccn2)C2CC2)C1=O (stereo not drawn) | -13.6 |
| CC(=O)N[C@@H](C)C(=O)N1CCC(n2nccc2NC(=O)CCCc2ccccc2)CC1 | -2.4 |
| CSCCC(NC(=O)C1CCC(C)CC1)C(=O)N1CCN(c2ccccn2)CC1 (stereo not drawn) | -45.5 |
| COc1cc(N2CCCC2)c(OC)cc1/C=C1/NC(=S)NC1=O | 2.81 |
| O=C(CSc1nc(-c2cccs2)cc(C(F)(F)F)n1)NCCCN1CCOCC1 | 1.17 |
| Cc1ccc(-c2nc3c(Cl)cc(Cl)cc3c(=O)n2O)cc1 | 16.1 |
| O=C(O)c1cc([N+](=O)[O-])ccc1NCc1cccnc1 | 11.9 |
| CCOc1ccc(-c2noc(CCCC(=O)NC3CCCCC3)n2)cc1OC | -37.1 |
| O=C(Nc1ccc(O)cc1)c1ccc2c(c1)C(=O)N(Cc1cccnc1)C2=O | 7.52 |
| Cc1nc(S/C(C(=O)O)=C2/C(=O)Nc3ccccc32)n[nH]1 | -4.82 |
| CC1Cc2ccccc2N1C(=O)COC(=O)c1ccc(Cl)nc1 (stereo not drawn) | 3.39 |

| Structure (SMILES) | hERG current change (%, negative = inhibition) at 10uM [%] |
| --- | --- |
| COc1ccc(-c2c(C)n([O-])c3c([n+]2=O)CCCCC3)cc1 | 9.61 |
| Cc1c(Cl)cccc1NC(=O)CNc1cccc(C(F)(F)F)c1 | -2.18 |
| COc1ccc(CCNC(=O)c2nn(C)c3c2CS(=O)(=O)c2ccccc2-3)c(OC)c1 | -19.7 |
| COc1ccc(CC2(CCc3ccccn3)C(=O)NC(=O)N(c3ccccc3C)C2=O)cc1OC (stereo not drawn) | 6.39 |
| O=C(c1cc2ccccc2oc1=O)N1CCN(c2ccccn2)CC1 | -7.95 |
| COCCCNC(=S)Nc1cccc(SC)c1 | 12.8 |
| CCC(CC)NC(=O)c1nn(Cc2ccccc2)c(=O)c2ccccc12 | 10.9 |
| COC(=O)Cc1ccc(OC(=O)c2cccc(S(=O)(=O)N3CCN(C)CC3)c2)cc1 | 1.35 |
| O=C(O)c1cccc(S(=O)(=O)Nc2cccc(S(=O)(=O)N3CCCC3)c2)c1 | 0.053 |
| Cc1nn(-c2ccc(Cl)cc2Cl)c(=O)c2ccccc12 | -11.3 |
| CCOC(=O)N1CCN(C(=O)CCN2C(=O)/C(=C\c3cccc(OC)c3)SC2=S)CC1 | 5.87 |
| Cc1ccc(C(=O)CSc2nnc(-c3ccco3)o2)o1 | 0.0679 |
| COc1ccc2c(c1)c(C(C)=O)c(C)n2CCc1ccc(OC)c(OC)c1 | -6.52 |
| C/C(=C(\C#N)C(=O)NCCN1CCOCC1)N(C)C | -31.4 |
| COc1ccc(CCNC(=O)c2cc(=O)c3cc(C)ccc3o2)cc1OC | -12.7 |
| Cc1cccc(Oc2sc(C(=O)c3ccccc3)c(N)c2C#N)c1C | 8.13 |
| COc1ccc(NC(=S)NC(NC(=O)c2cccc3ccccc23)C(Cl)(Cl)Cl)c([N+](=O)[O-])c1 (stereo not drawn) | -10.3 |
| CN(C(=O)c1ccc2c(c1)OCO2)C1(C)CCS(=O)(=O)C1 (stereo not drawn) | 0.831 |
| CCCCn1c(N)c(N(CC(C)C)C(=O)c2ccc3c(c2)NC(=O)C(C)S3)c(=O)[nH]c1=O (stereo not drawn) | 15.6 |
| CCOc1ccc2ncc(S(=O)(=O)c3ccccc3)c(N3CCN(c4ccccc4)CC3)c2c1 | -2.21 |
| O=C(CCSCCc1ccccn1)Nc1nccs1 | 30.1 |

| Structure (SMILES) | hERG current change (%, negative = inhibition) at 10uM [%] |
| --- | --- |
| Nc1ccc(C(=O)OCC(=O)N2c3ccccc3Sc3ccccc32)cc1[N+](=O)[O-] | 8.44 |
| O=C(Nc1ccc2cn[nH]c2c1)c1ccc(Cl)c(S(=O)(=O)N2CCOCC2)c1 | 13.4 |
| Cc1ccc(-n2nc(C)c(=O)c(-c3ccccc3)c2NC(=O)c2cccs2)cc1 | 9.65 |
| CCOC(=O)C1=C(C)NC(=O)NC1c1ccc(NC(C)=O)cc1 (stereo not drawn) | 11.6 |
| O=C(Nc1ccccc1F)C1CCN(S(=O)(=O)c2cccnc2)CC1 | 9.24 |
| C=CCn1cc(CN2CCC(C(=O)Nc3cccc(-c4cccc(Cl)c4)c3)CC2)c(C)n1 | -71.5 |
| O=C(COn1nnc2ccc(S(=O)(=O)N3CCOCC3)cc21)NCCc1ccccc1 | -8.87 |
| CCOc1ccccc1NC(=O)C1CCCN(S(=O)(=O)c2ccc(-n3cnnn3)cc2)C1 (stereo not drawn) | -14.9 |
| COc1ccc(N2C(=O)c3ccc(C(=O)Nc4ccccc4OC)cc3C2=O)cc1 | 10.1 |
| Oc1ccc(CN2CCN(Cc3ccccc3)CC2)c2cccnc12 | -13.9 |
| CC(C)c1ccc(OCC(=O)NC(Cc2c[nH]c3ccccc23)C(=O)O)cc1 (stereo not drawn) | 12.8 |
| COc1ccc(CCNS(=O)(=O)c2cccc(F)c2)cc1OC | -1.75 |
| CC(=O)c1ccc(NC(=O)C2CCCN(S(=O)(=O)c3ccc(-n4cnnn4)cc3)C2)cc1 (stereo not drawn) | -7.32 |
| O=C1NCCN1C(=O)C12CC3CC(CC(C3)C1)C2 | -3.17 |
| COC(=O)CN(c1cc(C(F)(F)F)ccc1Cl)S(C)(=O)=O | -0.798 |
| CC1=NN(c2ccccc2)C(=O)C1N=Nc1ccc(S(N)(=O)=O)cc1 (stereo not drawn) | 10.5 |
| Cn1c(CN2CCN(c3ccccc3NS(C)(=O)=O)CC2)nc2ccccc21 | -61.5 |
| O=C(C1=COCCO1)N1CCN(S(=O)(=O)c2cccc(Cl)c2Cl)CC1 | -21.4 |
| O=C(Nc1nnc(SCC(=O)N2CCCCC2)s1)c1ccc(F)cc1F | -1.68 |
| COc1ccc(NC(=O)CNc2cc(C)ccc2C)cc1S(=O)(=O)N1CCOCC1 | -8.85 |
| O=c1nc(Nc2ccc([N+](=O)[O-])cc2)[nH]c(=O)[nH]1 | 24.5 |

| Structure (SMILES) | hERG current change (%, negative = inhibition) at 10uM [%] |
| --- | --- |
| COCCN(CC(=O)Nc1cccc(C)c1C)C(=O)Cn1c(=O)cnc2ccccc21 | -0.721 |
| O=C(CSc1ncccc1-c1nc2ccccc2[nH]1)N1CCc2ccccc21 | 13.2 |
| COc1ccc(OC)c(S(=O)(=O)n2ccnc2C(C)C)c1 | 13.7 |
| CCOC(=O)CSc1nc2cc3c(cc2cc1C#N)OCO3 | 1.16 |
| C1CCC(Nc2nnnn2C2CCCCC2)CC1 | 7.77 |
| Cc1cccc(N(C(=O)CCC(=O)Nc2ccccn2)C(C(=O)NC(C)C)c2ccc(F)cc2)c1 (stereo not drawn) | 23.2 |
| CN(C)c1nc(N)nc(CSc2nnnn2C)n1 | 9.06 |
| CCCn1nnnc1SCC(=O)NNC(=O)c1ccco1 | 7.41 |
| COc1cccc(CN2CCC(N(CCc3ccccc3)Cc3ccccc3)CC2)c1OC.O=C(O)C(=O)O | -60.3 |
| CCN1CCN(CCCNC(=O)C2c3ccccc3C(=O)N(C)C2c2ccc(OC)cc2)CC1 (stereo not drawn) | 14 |
| C/C(CC(=O)Nc1ccc(F)cc1F)=N\NC(=O)C(=O)N1CCCCC1 | 31 |
| NC(=O)C1CC(=O)N(c2ccc(OCC(=O)Nc3cccc(C(F)(F)F)c3)cc2)C1 (stereo not drawn) | 2.47 |
| C=CCn1c(=NC(=O)c2ccccc2[N+](=O)[O-])sc2cc(S(C)(=O)=O)ccc21 | 2.98 |
| CCOC(=O)N1CCN(C(=O)c2cccc(NS(=O)(=O)c3ccc(F)c(F)c3)c2)CC1 | 6.02 |
| COCCn1cc(-c2csc(N)n2)c2ccccc21 | 4.23 |
| CCC(c1nnnn1C1CCCC1)N(Cc1cccs1)Cc1cc2cccc(C)c2[nH]c1=O (stereo not drawn) | 9.78 |
| CCc1ccc(NC(=O)c2cc(Br)ccc2Br)cc1 | 5.71 |
| O=C(c1csc2c1CCCC2)N1CCN(c2ccccc2)CC1 | -14.8 |
| O=C(Cn1cnc2ccccc21)N/N=C/c1ccco1 | 12.5 |
| COc1ccc2cc(C(=O)C3CCCN(C(=O)c4snnc4C)C3)ccc2c1 (stereo not drawn) | -17.3 |
| O=C(/C=C/c1ccccc1)NCCS(=O)(=O)N1CCN(c2ccccc2)CC1 | -1.07 |

From publication PMC4336329 (PLoS ONE, 2015)
